# The supplement of paper PMC5919970
# Structures can show the parent of a compound that is named as a salt. The full ranking holds about 2,000 compounds; the median of “fractional viability relative to vehicle” is about 0.91, and the lowest 2% start at about 0.045. Some of the results follow.
# Test system: TYKNU
# Assay: fractional viability relative to vehicle; TYKNU is a high-grade serous ovarian cancer line; higher = less growth inhibition
# Settings: 72 h
# Procedure, shortened: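 TYKNU control cells or lentiCRISPRv2 knockout derivatives were seeded at 500 cells per well into drug-stamped 384-well plates holding a ~2100-compound library at 2 or 10 μM, in duplicate. Cells were grown at 37 °C in 5% CO2 in RPMI 1640 with 10% FBS, and drug treatment lasted 72 h. Viability was read by Cell Titer Glo luminescence. Duplicate treatment wells were averaged and normalised to duplicate control wells from the same plate position.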
# [1] = 2uM, genotype: DNM1L knockout (sgDNM1L #1)
# [2] = 2uM, genotype: sgCTRLA1 (non-targeting control)
# [3] = 10uM, genotype: DNM1L knockout (sgDNM1L #1)
# [4] = 10uM, genotype: sgCTRLA1 (non-targeting control)
SMILES,fractional viability [1],fractional viability [2],fractional viability [3],fractional viability [4]
Cc1ncc([N+](=O)[O-])n1CC(O)CCl (configuration not stated) [Ornidazole],1.42,1.24,1.25,1.37
CN1C(C(=O)Nc2ccccn2)=C(O)c2sccc2S1(=O)=O [Tenoxicam],1.02,1.08,0.994,1.12
N=C(N)N [Guanidine HCl],0.965,1.12,0.73,1.16
Cc1c(C(N)=O)cc([N+](=O)[O-])cc1[N+](=O)[O-] [Dinitolmide],1.06,1.14,1.07,1.18
NS(=O)(=O)c1cc(C(=O)O)c(NCc2ccco2)cc1Cl [Furosemide],0.895,1.11,0.913,1.05
O=C(O)c1cc(=O)c2ccccc2o1 [Chromocarb],0.948,1.07,0.923,1.05
CCOc1cc([C@@H](CS(C)(=O)=O)N2C(=O)c3cccc(NC(C)=O)c3C2=O)ccc1OC,0.778,1,0.885,0.863
COc1cc(C(=O)NS(=O)(=O)c2ccccc2C)ccc1Cc1cn(C)c2ccc(NC(=O)OC3CCCC3)cc12 [Zafirlukast],1.01,1.09,0.94,1.03
CN[C@H]1CN(c2ccc3c(=O)c(C(=O)O)cn(-c4nccs4)c3n2)C[C@@H]1OC [Voreloxin (SNS-595)],0.465,0.517,0.319,0.177
Cc1cc(C2CCCCC2)n(O)c(=O)c1 [Ciclopirox ethanolamine],0.385,0.406,0.182,0.186
Cc1cc(C2CCCCC2)n(O)c(=O)c1 [Ciclopirox],0.413,0.429,0.172,0.193
CC1=C(C(=O)OC(C)C)C(c2cccc([N+](=O)[O-])c2)C(C(=O)OC2CN(C(c3ccccc3)c3ccccc3)C2)=C(N)N1 (configuration not stated) [Azelnidipine],0.869,0.966,0.306,0.583
CCc1cncnc1N1CCN(Cc2nc3ccc(C(F)(F)F)cc3[nH]2)CC1,0.865,1,0.754,0.656
COc1ccc(-c2nc3cc(C4=NNC(=O)CC4C)ccc3[nH]2)cc1 (configuration not stated) [Pimobendan],1.1,1.05,0.55,0.472
NCC(=O)Nc1ccc(-n2nc(C(F)(F)F)cc2-c2ccc3c(ccc4ccccc43)c2)cc1,0.713,0.617,0.0563,0.0497
CNS(=O)(=O)Cc1ccc2[nH]cc(CCN(C)C)c2c1 [Sumatriptan Succinate],0.993,1.18,0.947,0.947
O=c1c(O)c(-c2ccc(O)c(O)c2)oc2cc(O)ccc12 [Fisetin],1,1.16,0.99,1.03
COc1cc2ncnc(Oc3cccc(NC(=O)Nc4cc(C(C)(C)C(F)(F)F)on4)c3)c2cc1OC,0.673,0.784,0.384,0.248
O=C(COc1ccc(Cl)cc1)NC1CCC(NC(=O)COc2ccc(Cl)cc2)CC1 (stereo not drawn) [ISRIB (trans-isomer)],0.839,0.901,0.819,0.703
NS(=O)(=O)c1cc2c(cc1Cl)N=CNS2(=O)=O [Chlorothiazide],0.995,1.1,1.1,1.06

SMILES,fractional viability [1],fractional viability [2],fractional viability [3],fractional viability [4]
COc1ccc(-c2cnc3c(-c4cccc5ncccc45)cnn3c2)cc1,1.18,1.28,1.1,1.2
O=C(NCc1ccncc1)C12CC3CC(C1)CC(c1ccc(Cl)cc1)(C3)C2,0.946,0.963,0.585,0.797
CCOC(=O)[C@H](CCc1ccccc1)N[C@@H](C)C(=O)N1[C@H](C(=O)O)C[C@@H]2CCC[C@@H]21 [Ramipril],1.03,1.15,0.997,1.06
NC(=O)c1ncn([C@@H]2O[C@H](CO)[C@@H](O)[C@H]2O)n1 [Ribavirin],1.01,1.28,1.01,1.33
Cc1ccc(S(=O)(=O)n2c(N)nc3ccccc32)cc1 [ML130 (Nodinitib-1)],1.07,1.13,0.84,1.16
CC[C@H]1OC(=O)[C@H](C)[C@@H](O[C@H]2C[C@@](C)(OC)[C@@H](O)[C@H](C)O2)[C@H](C)[C@@H](O[C@@H]2O[C@H](C)C[C@H](N(C)C)[C@H]2O)[C@](C)(OC)C[C@@H](C)C(=O)[C@H](C)[C@@H](O)[C@]1(C)O [Clarithromycin],1.1,1.18,1.08,1.08
O=[N+]([O-])c1ccc2c(c1)S(=O)(=O)C=C2 [Stattic],0.0799,0.101,0.0327,0.0222
CCCCCCCCC/C(=C\C1=C(C)C(=O)C(OC)=C(OC)C1=O)C(=O)O,0.847,0.878,0.855,0.701
C[C@H]1COC2=C1C(=O)C(=O)c1c2ccc2c1CCCC2(C)C [Cryptotanshinone],0.306,0.399,0.0756,0.132
NC(=O)Cc1cccc(C(=O)c2ccccc2)c1N [Nepafenac],0.974,0.954,0.92,0.878
CN(C)CC[C@H](CSc1ccccc1)Nc1ccc(S(=O)(=O)NC(=O)c2ccc(N3CCN(Cc4ccccc4-c4ccc(Cl)cc4)CC3)cc2)cc1[N+](=O)[O-],0.917,0.97,0.544,0.956
Nc1ccccc1NC(=O)c1ccc(CNC(=O)OCc2cccnc2)cc1 [Entinostat (MS-275)],0.493,0.575,0.117,0.191
CCCCOc1c(C(=O)c2c(F)cc(C)cc2F)c[nH]c2nncc1-2,0.887,1.05,0.181,0.573
CN(C)C(=O)COC(=O)Cc1ccc(OC(=O)c2ccc(NC(=N)N)cc2)cc1 [Camostat Mesilate],1.06,1.15,0.849,1.06
CC(C)C[C@@H]1NC(=O)[C@@H](C(C)C)NC(=O)[C@@H]2CCCN2C(=O)[C@@H](CC(=O)O)NC(=O)[C@@H](Cc2c[nH]c3ccccc23)NC1=O,0.701,0.892,0.809,0.824
N=C(N)NC(=O)c1nc(Cl)c(N)nc1N [Amiloride HCl],0.949,0.976,0.845,0.969
CCOC(=O)c1ccc(NC(=O)O[C@H]2[C@H](OC(=O)Nc3ccc4c(c3)OCO4)[C@@H](OC(=O)Nc3ccc4c(c3)OCO4)[C@@H](OC)O[C@@H]2CO)cc1,0.821,1.04,0.616,0.615
CCCCOc1cc(C(=O)NCCN(CC)CC)c2ccccc2n1 [Dibucaine HCl],1.07,1.09,0.769,0.943
CCNC(=O)C#Cc1ccc2c(C(=Nc3ccc(CN(C)C)cc3)c3ccccc3)c(O)[nH]c2c1,0.122,0.0962,0.0494,0.0319
O=C1CCc2cc(OCCCCc3nnnn3C3CCCCC3)ccc2N1 [Cilostazol],0.981,1.16,1.05,1.08

SMILES,fractional viability [1],fractional viability [2],fractional viability [3],fractional viability [4]
CCS(=O)(=O)CCn1c([N+](=O)[O-])cnc1C [Tinidazole],1.8,1.34,1.19,1.33
N#C[C@@H]1C[C@@H]2C[C@@H]2N1C(=O)[C@@H](N)C12CC3CC(CC(O)(C3)C1)C2 [Saxagliptin],1.01,1.04,0.919,0.96
CCC1=C(C)CN(C(=O)NCCc2ccc(S(=O)(=O)NC(=O)N[C@H]3CC[C@H](C)CC3)cc2)C1=O [Glimepiride],1.02,1.21,0.871,1.15
COc1cc(Nc2nc3ccccc3nc2NS(=O)(=O)c2ccc(NC(=O)c3ccc(C)c(OC)c3)cc2)cc(OC)c1,1.03,0.985,1.2,0.943
Nc1ncnc2c1c(-c1cnc3[nH]ccc3c1)nn2C1CCCC1,0.378,0.46,0.129,0.146
Cc1cc(C(O)=C2C(=O)C(=O)N(CCCN3CCOCC3)C2c2ccncc2)ccc1OCc1ccccc1 (configuration not stated),0.77,0.984,0.802,0.726
CC(C)NCC(O)COc1cccc2ccccc12 (configuration not stated) [Propranolol HCl],0.866,1.12,0.82,1.1
Cc1nc(NC(=O)N2CCC[C@H]2C(N)=O)sc1-c1ccnc(C(C)(C)C(F)(F)F)c1,0.664,0.903,0.43,0.708
CCC1C/C(=C\c2cccnc2)C(=O)/C(=C/c2cccnc2)C1 (configuration not stated),0.104,0.0876,0.0563,0.0253
CN(C)Cc1ccc(-c2nc3cccc4c3n2CCNC4=O)cc1,0.981,1.08,0.751,0.885
O=C(/C=C\n1cnc(-c2cc(C(F)(F)F)cc(C(F)(F)F)c2)n1)NNc1cnccn1,0.132,0.169,0.106,0.152
Cc1[nH]c(/C=C2\C(=O)Nc3ccc(S(=O)(=O)N(C)c4cccc(Cl)c4)cc32)c(C)c1C(=O)N1CCN(C)CC1,1.02,0.999,0.152,0.189
CC(C)C[C@H](NC(=O)[C@H]1O[C@@H]1C(=O)O)C(=O)NCCCCN=C(N)N,0.77,0.939,0.841,0.801
COC(=O)[C@@H]1[C@H]2C[C@H]3c4[nH]c5ccccc5c4CCN3C[C@@H]2CC[C@@H]1O [Yohimbine HCl],0.908,1.03,0.827,1.19
Oc1c2ccccc2c2c3c(cccc13)N=N2,1.29,1.21,0.842,1.17
CCCCNC(=O)NS(=O)(=O)c1ccc(C)cc1 [Tolbutamide],1.06,1.06,0.99,1.03
C[C@@H]1O[C@@H](O[C@H]2[C@H](Oc3cc(O)c(C(=O)CCc4ccc(O)cc4)c(O)c3)O[C@H](CO)[C@@H](O)[C@@H]2O)[C@H](O)[C@H](O)[C@H]1O [Naringin Dihydrochalcone],1.08,1.1,1.14,0.959
"CCCS(=O)(=O)Nc1ccc(F)c(C(=O)c2c[nH]c3ncc(-c4ccc(Cl)cc4)cc23)c1F [Vemurafenib (PLX4032, RG7204)]",1.05,1.26,0.823,0.974
